Results as given in PubChem BioAssay (NCATS).
Values joined by “and” are separate entries in the source; they are usually repeats but may differ in a detail not shown here. Equal values may be shown once. The inconclusive results got no clear call from the source; some entries with a clear call stand among them for comparison. No potency is given beside an inconclusive call; the fits are too rough. Active and inactive are the calls of the source. The call rests on the fitted dose curve; in most records, active means well fitted cell-killing curve with a large enough effect; inconclusive means small, poorly fitted or top-dose-only effect; inactive means no such curve, though single readings can be large or run the other way.

test: qHTS of pediatric cancer cell lines to identify multiple opportunities for drug repurposing: Primary screen for SK-N-MC cells (AID 1347093); conditions: SK-N-MC viability, CellTiter-Glo luminescence, 48 h; activity change, negative = cytotoxic: at 46 µM (top of the series)
Source text: Drug repurposing or repositioning has been offered as a strategy for drug development in oncology programs. This approach has special potential for childhood cancers and other rare or orphan diseases, where the expected return on new drug development has been a disincentive to pharmaceuticals.
In this project we exploit the poly-pharmacology of drugs to discover new indications via phenotypic screening of a panel of 19 well-characterized cell lines derived from solid tumors seen in children and adolescents. The goal is to identify approved drugs with previously unrecognized anticancer properties that has the potential to reveal new mechanisms and biological processes involved in carcinogenesis or drug resistance. We employed a titration-based paradigm (quantitative high-throughput screening or qHTS), where all compounds were tested at multiple concentrations for their effect on cell viability. Concentration-response curves (CRCs) were derived directly from the primary screen, and both potency and efficacy values were used to identify compounds with robust bioactivity profiles. We screened the NIH Chemical Genomics Center (NCGC) Pharmaceutical Collection (NPC) and Mechanism Interrogation Plate (MIPE) small molecule collections of approved and investigational compounds against these cell lines; and measured metabolically active cells after 48 hours of compound treatment as a proxy for cell viability.
Assay Submitter: Nathalia J. Martinez, National Center for Advancing Translational Sciences, National Institutes of Health, Rockville, MD, USA; email: natalia.martinez@nih.gov
[1] Shen, M et al. Quantitative high-throughput phenotypic screening of pediatric cancer cell lines identifies multiple opportunities for drug repurposing. Oncotarget 2017 Dec 19;9(4):4758-4772. PMID 29435139.
The cells were obtained from University of North Carolina (UNC), Pediatric Preclinical Testing Program (PPT), and Coriell Institute (CI).
qHTS cell viability assay:
Cells were assayed in growth media at a density of 500-1,000 cells/well. Five microliters of cells were dispensed into 1,536-well, white, solid-bottom, TC-treated plates (Greiner Bio One) using a multidrop dispenser and incubated at 37 degrees C, 5% CO2, under a humidified atmosphere for 5 hours. Twenty-three nanoliters of compounds and controls (neutral control DMSO or positive control bortezomib at final concentration of 2.3 µM) were subsequently transferred by Kalypsys pintool. For primary screens, the MIPE collection was tested at 11-point dilutions (final concentrations range from 0.78 nM to 46 µM) and the NPC collection at 8-point dilutions (final concentrations range from 0.59nM to 46 µM). Compounds tested in follow-up screens were assayed at 11-point dilutions. Cells were incubated for 48 hours, followed by addition of 3 uL of CellTiter-Glo (Promega). After a 15 min incubation at room temperature, samples were analyzed for luminescence intensity using a ViewLux High-throughput CCD imager equipped with clear filters.
Potency means the concentration at half of the fitted maximal effect; tags describe the fitted curve by direction and shape.

Row | Structure (SMILES) | Potency | activity change, negative = cytotoxic
1 | O=S(=O)(O)c1ccc2nc(-c3ccccc3)[nH]c2c1 | inconclusive [cytotoxic, partial curve, poor fit] | 
2 | CCOC(=O)C1=C[C@@H](OC(CC)CC)[C@H](NC(C)=O)[C@@H](N)C1 | inconclusive [cytotoxic, full curve, poor fit] | 
3 | Oc1cc2c(cc1O)C1c3ccc(O)c(O)c3OCC1(O)C2 (stereo not given) | inconclusive [cytotoxic, single point] | 
4 | O=C(Nc1ccc(Oc2ccnc3[nH]ccc23)c(F)c1)c1cccn(-c2ccc(F)cc2)c1=O | inconclusive [cytotoxic, full curve, poor fit] | 
5 | Cc1cc(O)c(C(C)C)cc1Cl |  | inactive: 5.73%
6 | COc1ccc(-c2cc(C(F)F)nn2-c2ccc(S(N)(=O)=O)cc2)cc1F |  | inactive: 55%
7 | CC1=C(CC(=O)O)c2cc(F)ccc2C1=Cc1ccc(S(C)=O)cc1 (stereo not given) | inconclusive [cytotoxic, full curve, poor fit] | 
8 | CC(=O)OCC(=O)[C@@]12OC(C)(C)O[C@@H]1C[C@H]1[C@@H]3C[C@H](F)C4=CC(=O)C=C[C@]4(C)[C@@]3(F)[C@@H](O)C[C@@]12C | inconclusive [cytotoxic, single point] | 
9 | c1ccc2c(CCNc3ccc(Nc4ccncc4)cc3)c[nH]c2c1 | active: 1.87 µM | 
10 | O=S(=O)(O)c1ccc2cc(N=Nc3cc(S(=O)(=O)O)c4cccnc4c3O)ccc2c1 | active: 18.7 µM | 
11 | N[C@H](Cc1c[nH]c2ccccc12)C(=O)O |  | inactive: 6.3%
12 | NC1(C(=O)N[C@@H](CCO)c2ccc(Cl)cc2)CCN(c2ncnc3[nH]ccc23)CC1 | active: 0.372 µM | 
13 | CCCCC(=O)O[C@]1(C(=O)CO)CC[C@H]2[C@@H]3CCC4=CC(=O)CC[C@]4(C)[C@H]3[C@@H](O)C[C@@]21C |  | inactive: 8.14%
14 | Clc1ccc2c(c1)C(N1CCNCC1)=Nc1ccccc1O2 | inconclusive [cytotoxic, single point] | 
15 | CCOc1ccc2nc3cc(N)ccc3c(N)c2c1 | inconclusive [cytotoxic, single point] | 
16 | CC(=O)[C@H]1CC[C@H]2[C@@H]3C[C@H](C)C4=CC(=O)CC[C@]4(C)[C@H]3[C@@H](O)C[C@]12C |  | inactive: -0.867%
17 | CN(Cc1cnc2nc(N)nc(N)c2n1)c1ccc(C(=O)N[C@@H](CCC(=O)O)C(=O)O)cc1 | inconclusive [cytotoxic, full curve, poor fit] | 
18 | O=C(CCCN1CCC(O)(c2cccc(C(F)(F)F)c2)CC1)c1ccc(F)cc1 | inconclusive [cytotoxic, partial curve, poor fit] | 
19 | CCCCCCCCCCCCCC[N+](C)(C)C | active: 3.35 µM | 
20 | COc1cccc2c1C(=O)c1c(O)c3c(c(O)c1C2=O)C[C@@](O)(C(C)=O)C[C@@H]3O[C@H]1C[C@H](N)[C@H](O)[C@H](C)O1 | active: 0.0841 µM | 

Row | Structure (SMILES) | Potency | activity change, negative = cytotoxic
21 | C#Cc1cccc(Nc2ncnc3cc(OCCOC)c(OCCO)cc23)c1 | inconclusive [cytotoxic, full curve, poor fit] | 
22 | CN1CCC(Nc2ncc3ncnc(Nc4ccc(F)c(Cl)c4)c3n2)CC1 | inconclusive [cytotoxic, single point] | 
23 | OCCN1C[C@H](O)[C@@H](O)[C@H](O)[C@@H]1CO |  | inactive: 11%
24 | Cc1c(O)cccc1C(=O)N[C@@H](CSc1ccccc1)[C@H](O)CN1C[C@H]2CCCC[C@H]2C[C@H]1C(=O)NC(C)(C)C | active: 26.6 µM | 
25 | OC1CCC(Nc2ncc3nc(Nc4c(F)cc(F)cc4F)n([C@@H]4CCOC4)c3n2)CC1 (stereo not given in full) | inconclusive [cytotoxic, full curve, poor fit] | 
26 | CCC(=O)c1ccc2c(c1)N(CCCN(C)C)c1ccccc1S2 | inconclusive [cytotoxic, partial curve, poor fit] | 
27 | CCCCCCCCCCCCCCCC[N+](C)(C)Cc1ccccc1 | inconclusive [cytotoxic, single point] | 
28 | Nc1nc(Nc2ccc(S(N)(=O)=O)cc2)nn1C(=O)c1c(F)cccc1F | active: 3.32 µM | 
29 | CC[C@@]1(O)C(=O)OCc2c1cc1n(c2=O)Cc2cc3c(CN(C)C)c(O)ccc3nc2-1 | active: 6.7 nM and active: 23.5 nM | 
30 | Oc1c(I)cc(Cl)c2cccnc12 | inconclusive [cytotoxic, single point] | 
31 | COc1ccc(CN2CCN(C(c3ccc(F)cc3)c3ccc(F)cc3)CC2)c(OC)c1OC | inconclusive [cytotoxic, single point] | 
32 | O=C1OCCN1/N=C/c1ccc([N+](=O)[O-])o1 |  | inactive: 41.5%
33 | CCCCC(CC)CN=C(N)NC(N)=NCCCCCCN=C(N)NC(N)=NCC(CC)CCCC (stereo not given) | active: 5.31 µM | 
34 | Cc1c(NC(=O)c2cccnc2)c(=O)n(-c2ccccc2)n1C |  | inactive: 1.5%
35 | CCCCOc1ccc(C(=O)CCN2CCCCC2)cc1 | inconclusive [cytotoxic, single point] | 
36 | CCN(CC)CCNc1ccc(CO)c2sc3ccccc3c(=O)c12 | active: 21.1 µM | 
37 | COCC(=O)O[C@]1(CCN(C)CCCc2nc3ccccc3[nH]2)CCc2cc(F)ccc2[C@@H]1C(C)C | inconclusive [cytotoxic, single point] | 
38 | CN(C)CCCOc1nn(Cc2ccccc2)c2ccccc12 | inconclusive [cytotoxic, partial curve, poor fit] | 
39 | O[C@@H](c1cc(C(F)(F)F)nc2c(C(F)(F)F)cccc12)[C@H]1CCCCN1 | inconclusive [cytotoxic, single point] | 
40 | CCOC(=O)C1=C(C)NC2=C(C(=O)CC(C)(C)C2)C1c1ccc(-c2ccccc2)cc1 (stereo not given) | inconclusive [cytotoxic, full curve, poor fit] | 
